Data from paper PMC4336329 (PLoS ONE, 2015).
Hit rate of the full screen: of about 310,000 compounds, about 2,200 (0.71%) showed an effect of 50% or more. Effects have a minus sign here. The list shows a part of the results.

target: human ether-à-go-go-related gene (hERG) potassium channel (human, UniProt Q12809); experiment: primary screen, population patch clamp on CHO cells stably expressing hERG
Sequence (Q12809 whole entry, looked up): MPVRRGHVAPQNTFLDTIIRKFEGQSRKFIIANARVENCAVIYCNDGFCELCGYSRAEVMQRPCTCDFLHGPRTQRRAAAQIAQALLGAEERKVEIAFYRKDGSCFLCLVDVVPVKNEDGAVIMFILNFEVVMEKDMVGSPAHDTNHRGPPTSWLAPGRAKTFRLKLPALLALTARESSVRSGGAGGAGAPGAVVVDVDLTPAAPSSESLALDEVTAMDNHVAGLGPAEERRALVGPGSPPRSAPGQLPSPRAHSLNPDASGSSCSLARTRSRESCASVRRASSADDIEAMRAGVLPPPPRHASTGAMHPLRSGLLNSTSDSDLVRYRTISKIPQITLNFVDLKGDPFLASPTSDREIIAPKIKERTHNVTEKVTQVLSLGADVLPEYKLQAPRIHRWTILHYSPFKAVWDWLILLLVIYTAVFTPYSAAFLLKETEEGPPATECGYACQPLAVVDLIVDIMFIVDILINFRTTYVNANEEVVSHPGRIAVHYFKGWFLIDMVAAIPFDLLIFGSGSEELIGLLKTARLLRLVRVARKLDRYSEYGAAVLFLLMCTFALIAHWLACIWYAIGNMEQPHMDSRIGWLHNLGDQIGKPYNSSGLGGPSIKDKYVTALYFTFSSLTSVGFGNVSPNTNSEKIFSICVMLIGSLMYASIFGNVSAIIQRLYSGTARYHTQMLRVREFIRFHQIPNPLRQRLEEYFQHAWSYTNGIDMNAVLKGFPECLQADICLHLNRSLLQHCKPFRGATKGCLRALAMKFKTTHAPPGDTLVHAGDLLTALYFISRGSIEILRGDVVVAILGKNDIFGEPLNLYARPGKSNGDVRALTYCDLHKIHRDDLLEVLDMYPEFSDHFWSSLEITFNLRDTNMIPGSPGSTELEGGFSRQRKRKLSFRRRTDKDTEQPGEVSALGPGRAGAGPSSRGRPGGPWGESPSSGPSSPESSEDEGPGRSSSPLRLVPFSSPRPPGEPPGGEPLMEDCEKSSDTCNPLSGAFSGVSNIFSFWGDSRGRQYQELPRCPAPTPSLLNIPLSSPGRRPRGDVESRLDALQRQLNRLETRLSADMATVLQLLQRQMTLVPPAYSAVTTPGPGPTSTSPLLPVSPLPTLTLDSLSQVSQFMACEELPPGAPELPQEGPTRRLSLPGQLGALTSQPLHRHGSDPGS

| SMILES | hERG current change (%, negative = inhibition) at 1uM [%] |
| --- | --- |
| CCOC(=O)CSc1nnc(CNC(=O)c2cccs2)n1-c1cccc(C)c1 | -0.396 |
| O=C(O)CCCC(=O)Nc1ccccc1Br | 7.35 |
| CCCCOCCCNC(=O)CC(C)c1ccccc1 (stereo not drawn) | 11.6 |
| CCN(CC)C(=O)c1ccc(-c2nnc(Nc3ccc(C(=O)N(C)C)cc3)c3ccccc23)cc1 | 4.81 |
| CC(C)(C)NC(=O)C(c1ccccc1)N(C(=O)c1csnn1)C1CC1 (stereo not drawn) | 5.85 |
| CCOC(=O)C1CCCN(C(=O)Cc2c(F)cccc2Cl)C1 (stereo not drawn) | 14.1 |
| CCC(=O)C1CCCN(C(=O)c2ccc(OC3CCN(C(=O)c4cccnc4)CC3)cc2)C1 (stereo not drawn) | 4.4 |
| O=C(COc1ccccc1)Nc1nccs1 | 0.509 |
| O=C(OCC(=O)N1CCOCC1)c1ccccc1Br | 17.3 |
| COc1ccc(OCCC(=O)N2CCN(C)CC2)cc1.Cl | 17 |
| O=CNCCCc1nc2ccccc2n1Cc1cccc2ccccc12 | -13.3 |
| CCCCn1nc(C(=O)NNC(=O)c2ccncc2)c2ccccc2c1=O | 7.47 |
| C=CCn1c(CC(C)(C)C)nc2ccccc21 | 7.91 |
| O=C(COC(=O)c1ccco1)NC(c1ccccc1)c1ccccc1 | 5.02 |
| Clc1ccc(Cl)c(OCCCCNCc2ccccc2)c1.O=C(O)C(=O)O | -6.63 |
| COc1ccc(Cl)cc1NC(=S)NCc1ccccn1 | 12.6 |
| CCCc1ccc(OCCNC(=O)CC)cc1 | 6.36 |
| CCC(C(=O)OC)n1cnc2c(nnn2-c2cccc(OC)c2)c1=O (stereo not drawn) | 1.98 |
| O=C(NC1(Cc2ccccc2)CCN(Cc2ccc(-c3ccccc3)cc2)C1=O)c1ccccc1 (stereo not drawn) | 12.5 |
| COc1cccc(C2/C(=C(/O)c3ccc4c(c3)CC(C)O4)C(=O)C(=O)N2c2nnc(C)s2)c1 (stereo not drawn) | 10.2 |
| CCOc1ccc(CN2CCCC(C(=O)c3ccccc3OC)C2)cc1 (stereo not drawn) | -74.1 |
| Cc1[nH]n(-c2ccccc2)c(=O)c1/C=N/NC(=O)c1cccc(F)c1 | 15.4 |
| COc1ccc(Br)cc1C(=O)N/N=C/c1ccc([N+](=O)[O-])cc1 | 20.9 |

| SMILES | hERG current change (%, negative = inhibition) at 1uM [%] |
| --- | --- |
| CC(C)c1csc(CN2CCN(Cc3ccc(F)c(F)c3)C(CCO)C2)n1 (stereo not drawn) | 2.23 |
| CCC/C=C(\CCC)C(NC(=O)OCC(C)C)c1ccc(C(=O)OC)cc1 (stereo not drawn) | 6.54 |
| Cn1c(CSCc2ccccc2)nnc1SCC(=O)Nc1nccs1 | -17.6 |
| NC(=O)N/N=C/c1ccccc1OCC(=O)NCc1ccccc1 | 2.35 |
| O=C(O)CCn1c(=O)[nH]c2ccccc2c1=O | 22.8 |
| COc1ccc(Br)cc1CN(C)C(=O)c1ccccc1OCc1c(C)noc1C | 5.97 |
| COc1cccc(/C=N/NC(N)=S)c1OCc1ccccc1Cl | 0.712 |
| O=C(C1=C[C@@H](c2coc3ccccc3c2=O)C[C@@H](OCc2ccc(CO)cc2)O1)N1CCOCC1 | 0.983 |
| O=C(Nc1ccccc1O)c1ccc2c(c1)C(=O)N(c1ccccc1)C2=O | 9.95 |
| Cc1ccc(C(=O)OCC(=O)Nc2sccc2C(N)=O)cc1NC(=O)c1ccco1 | 17.2 |
| NC(=O)c1ccsc1NC(=O)c1ccc(S(=O)(=O)N2CCCC2)cc1 | 1.07 |
| CC(=O)Nc1ccc(/C=C/c2nc3ccccc3[nH]c2=O)cc1 | 13.8 |
| CCn1c(=O)cc(SCC(=O)N2CCN(c3ccccc3F)CC2)c2ccccc21 | 9.89 |
| O=C(Nc1ccc(OC(F)F)cc1)c1ccccn1 | 9.46 |
| CCOc1ccccc1CN1CCNC(=O)C1CC(=O)NCc1ccccn1 (stereo not drawn) | -15.6 |
| CCOC(=O)C(NC(=O)c1ccc(F)cc1)(Nc1sc2c(c1C(N)=O)CCC2)C(F)(F)F (stereo not drawn) | 15.8 |
| Cc1cccc(N(CC(=O)NCc2ccc(F)cc2)C(=O)c2csnn2)c1C | -18.1 |
| CCOC(=O)C1=C(COC(=O)COc2ccc(OCC)cc2)NC(=O)NC1C (stereo not drawn) | 8.38 |
| Cc1ccc(-c2noc(C3CCCCC3)n2)cc1 | 8.8 |
| COc1ccc(C2N3CC(C)(C)CN23)cc1 (stereo not drawn) | 10.2 |
| Cc1cc(C(=O)OCn2nnc3ccccc3c2=O)c(C)o1 | 4.93 |
| CN(CC(=O)Nc1ccccc1Cl)C(=O)COC(=O)C1CC1 | 4.93 |
| O=C(NCCN1CCOCC1)c1ccc2c(c1)N(Cc1ccccc1F)C(=O)c1ccccc1S2(=O)=O | 11.9 |

| SMILES | hERG current change (%, negative = inhibition) at 1uM [%] |
| --- | --- |
| Cn1cccc1C(=O)NC(=O)COC(=O)c1ccc(O)cc1 | 7.5 |
| CCC1CCCCN1S(=O)(=O)c1ccc(NC(=O)c2snnc2C)cc1 (stereo not drawn) | 11.5 |
| CS(=O)(=O)N(CC(=O)N1CCC(C(N)=O)CC1)c1ccc(Cl)c(C(F)(F)F)c1 | 2.25 |
| COc1cc(C)c(CN2CCC(Cc3ccccc3)CC2)cc1C | 9.96 |
| COc1ccc(NC(=O)N2CCC3(CC2)OCCO3)cc1 | 2.8 |
| FC(F)(F)c1cccc(N2CCN(C(=S)NC3CCCCC3)CC2)c1 | 2.38 |
| Cc1cc(/C=C(\C#N)C(=O)Nc2ccccc2)c(C)n1-c1cccnc1 | 11 |
| CC(C)c1ccc(N(C(=O)CNC(=O)c2ccco2)C(C(=O)NC2CCCC2)c2cccnc2)cc1 (stereo not drawn) | 4.72 |
| CCN(CC)c1ccc(/C=C2/C(=O)c3ccc(C(=O)O)cc3C2=O)cc1 | 10.9 |
| COC(=O)C1CCN(Cc2c(C(=O)N3C[C@@H](C)O[C@@H](C)C3)nc3ccc(Cl)cn23)CC1 | 17.1 |
| COc1ccc(C2=NN(C(=O)C(O)c3ccccc3)C(O)(C(F)(F)F)C2)cc1 (stereo not drawn) | 2.34 |
| CSC1=N/C(=C\c2ccccc2F)C(=O)S1 | 2.11 |
| CCCCC1CCC(C(=O)N(CCCC)c2c(N)n(CCCC)c(=O)[nH]c2=O)CC1 (stereo not drawn) | 0.626 |
| CC1CN(C2CCN(C(=O)COc3ccccc3)CC2)CC(C)O1 (stereo not drawn) | 6.3 |
| CCn1c2ccccc2c2cc(CC(N)=O)ccc21 | 14.1 |
| C1CN(c2nc3nonc3n3nnnc23)CCO1 | 10 |
| Cc1ccc(-c2nc3ccc(Cl)cc3c(=O)n2O)cc1 | 27.7 |
| Cc1cccc(-c2sc(Nc3ccccc3)n[n+]2-c2ccc(F)cc2)c1.[Cl-] | 20 |
| Cc1ccc(NC(=O)c2cc(S(=O)(=O)N3CCCCC3)cs2)cc1 | 6.95 |
| Cc1ccc(N(C)C(=O)N2CCN(S(=O)(=O)c3ccc(C)cc3)CC2)cc1 | 7.92 |
| COc1c([N+](=O)[O-])c(=O)oc2ccccc12 | 16.1 |
| CCOc1cc2c(cc1OCC)-n1cccc1C(c1ccc(OC)cc1)NC2.Cl (stereo not drawn) | -16.8 |
| Cc1cccc(N2CCN(S(=O)(=O)c3ccc4c(c3)CC(C)N4C(=O)C3CC3)CC2)c1C (stereo not drawn) | 18.3 |

| SMILES | hERG current change (%, negative = inhibition) at 1uM [%] |
| --- | --- |
| NC(=O)C1(N2CCCCC2)CCN(C2CC(=O)NC2=O)CC1 (stereo not drawn) | -5.35 |
| CCN1CCN(c2cc(C)c3cc(NC(=O)c4ccc(C)c(C)c4)ccc3n2)CC1 | 6.61 |
| CC1CC(C(F)(F)F)n2ncc(C(=O)O)c2N1 (stereo not drawn) | 7.08 |
| Cc1cc(C(=O)CSc2nnc3c(Cl)cc(Cl)cn23)c(C)n1C | 14.3 |
| O=c1[nH]nc(Cc2ncc(C(F)(F)F)cc2Cl)c2ccccc12 | 11 |
| NC1=NC(=O)/C(=C/c2cc(Br)c(O)c(Br)c2)S1 | 12.9 |
| COC(=O)c1cccc(NC(=O)CCc2cc(OC)c(OC)c(OC)c2)c1 | 6.83 |
| O=C(Nc1cc(C(=O)N2CCOCC2)cc(C(=O)N2CCOCC2)c1)c1cc(F)c(F)cc1Cl | 10.2 |
| CC(=O)Nc1ccc(NC(=O)c2ccc(NS(=O)(=O)c3cc(C(C)(C)C)cc(C)c3C)cc2)cc1 | 5.11 |
| Cc1nc2nc(-c3cccnc3)[nH]n2c(=O)c1C | 16.7 |
| Cc1ccc(CNC(=O)CCc2ccc(S(=O)(=O)NCC(C)C)cc2)cc1 | -2.28 |
| O=C(Cn1cccc1)Nc1ccc(F)cc1F | -9.4 |
| CCNc1nc(Oc2ccc(OC)cc2)cc(C(F)(F)F)n1 | 10.7 |
| COc1ccc(F)cc1C(=O)C1CCCN(C(=O)c2cccc(N(C)C)c2)C1 (stereo not drawn) | 4.3 |
| O=C(NCc1cccc(C(F)(F)F)c1)N1CCN(S(=O)(=O)c2ccccc2F)CC1 | 8.23 |
| O=C(Nc1ccc(F)cc1)NC1(C(=O)NCc2cccs2)CCCCC1 | 5.04 |
| Cn1c(=O)c2c(nc(NCc3ccccc3)n2CCCc2ccccc2)n(C)c1=O | 7.49 |
| NC(=O)c1ccc(=O)n(Cc2ccc(F)c(F)c2)c1 | 15.3 |
| Cc1ccc([N+](=O)[O-])c(C)[n+]1C.[I-] | 19.8 |
| Cc1[nH]nc2c1C(=O)CC(C)(C)C2 | 4.55 |
| O=C(CCN1C(=O)C2CCCCC2C1=O)NNC(=O)c1cccc(Cl)c1 (stereo not drawn) | 10.7 |
